According to the RNAGym collection of RNA variant scans (doi:10.1093/nar/gkz1192):
Read counts are not given, so values of variants with three or more changes are uncertain.

B1: CPEB3 Ribozyme (parent)
chain: UAACAGGGGGCCACAGCAGAAGCGUUCACGUCGCAGCCCCUGUCAGAUUCUGGUGAAUCUGCGAAUUCUGCUGUAUAUCUC

Variants of: B1
Experiment: self-cleavage, relative activity (ratio to wild type); higher = more cleavage; in vitro, sequencing
In short: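 Libraries of CPEB3 self-cleaving ribozyme mutants came from rounds of error-prone PCR and carried barcodes, which DNA sequencing matched to variants. In vitro transcription used T7 RNA polymerase at 37°C for 5 hours, with a further 15 min in DNase I before EDTA stopped the reaction; the ribozymes cleaved during both steps. The RNA was reverse transcribed with template switching and sequenced on Illumina. Relative activity is the cleaved/total read fraction of a variant divided by that of the unmutated ribozyme, averaged over three batches with at least 5 reads.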

| Variant | self-cleavage |
| --- | --- |
| A45G G46A U48A | 0.23 |
| A45G G46C U48C U60A | 0.17 |
| A45U A57U A64G | 0.13 |
| A47G A56G A64G U66C | 0.08 |
| A47C G53A A77G | 0.73 |
| G46U U60C A64G C71U | 0.13 |
| A45U U54A A56U | 0.22 |
| A47C G63C A64G | 0.22 |
| A45G A56U A65G | 0.28 |
| A45U A47G U54C | 0.34 |
| A45G U48C U49C A64C A77G | 0.07 |
| A47G A64U U67G | 0.15 |
| A45G U49C C62U | 0.09 |
| A47G C50A A64G | 0.22 |
| A45G G63U A64G U72C U74C | 0.6 |
| A45G U51A A75U | 0.55 |
| A45G A56G U67C | 0.36 |
| A45G G63A U76C | 0.7 |
| A45G A57G U74C A75G | 0.89 |
| A45U U67C A75U | 0.15 |
| A45G A65G U66C | 0.15 |
| A45U U48C U67A U69A | 0.28 |
| A45G A47U A57G | 0.1 |
| A45G C59U U72A | 0.15 |

| Variant | self-cleavage |
| --- | --- |
| A47G A65U U72C | 0.18 |
| A45G U48C U67C | 0.25 |
| A45G U60C U78C | 1.15 |
| A45G G52A U78A | 1.13 |
| A45U U54G U67C U72C | 0.19 |
| A45G A56U U60C C71G | 0.3 |
| A45G A56U U60C U76C | 0.82 |
| A45G U51C U60A A64G | 0.19 |
| A45G U48C U72A | 0.21 |
| A45G U54C U58C U72C A77G | 0.2 |
| A45U U48C A56G U78C | 0.13 |
| A45U U49C U69G | 0.08 |
| A45U U49C U69A | 0.19 |
| A45G U49A U66C A75G | 0.1 |
| A45G U51C U69C U74C | 0.38 |
| A45G A65G U74C A75G | 0.39 |
| A45U U66C U72G G73C | 0.35 |
| A47G A56U U72C | 0.63 |
| A45U G52U A77G | 0.51 |
| A47G A57G U76A | 0.56 |
| G46A A56G A64G G70A | 0.08 |
| A47G A64G A75G | 0.77 |
| A47G G53A U69G | 0.97 |
| A45U A57G G63U A65U U69C | 0.1 |

| Variant | self-cleavage |
| --- | --- |
| A45G G46U A47C G63A U72A U78C | 0.08 |
| G46A U60C A75G | 0.07 |
| A45G A56G U69A C79A | 0.28 |
| A45U A56U A64U | 0.21 |
| A45G U49A C50A U78A | 0.27 |
| A45G A56G U78C | 0.56 |
| A45G U67G G70C | 0.16 |
| A47G C50U A57G U66C | 0.17 |
| A45U U72A U80C | 1.03 |
| A47G A56G A64U | 0.2 |
| A45U U49A A64G U78C | 0.1 |
| A45U U72C U78C | 0.71 |
| A45U U48C A57C U58C U67C U69C | 0.06 |
| A45G U49C A65G | 0.1 |
| A45U C68U A75U U80C | 0.19 |
| A45U U69C U78A | 0.4 |
| A45U U54G U58C A64G U67C U69C C81G | 0.11 |
| A45G U54C U72A U80C | 1.06 |
| A45U A56G A57G | 0.14 |
| A45G G46A U49C | 0.16 |
| A45U U67A U69C | 0.33 |
| A45G A47U U74C | 0.47 |
| A45G U54A U60A U67C U72C | 0.27 |
| A45U U54C U60A U69C | 0.45 |

| Variant | self-cleavage |
| --- | --- |
| A45G A47U U58G C62U | 0.19 |
| A45U U60C C68U | 0.27 |
| A45G U67C U69C U72C A75G | 0.21 |
| A45U U48A U49A U60C U69C | 0.2 |
| G46C U72C A77G | 0.2 |
| A45U U67C U72C A77G | 0.34 |
| A45G G52U G61C U66C | 0.17 |
| A45G G63U U78C | 0.85 |
| A45U U48C C62G U72C | 0.22 |
| A45G U48C A57G A65G | 0.24 |
| A45U U51C A56C | 0.33 |
| A45G A47U U67C | 0.13 |
| G46U C62G U69C | 0.18 |
| A45U G53A U60C | 0.74 |
| A45G U48C U60A U80A | 0.05 |
| A47G A57G U80A | 0.98 |
| A45U A47G U51A U74C | 0.32 |
| A45U U51A U69C | 0.22 |
| A45G A57U U76C | 0.53 |
| A45G A57G A64G | 0.59 |
| A45G A57U U66C A77U | 0.2 |
| A45G U49C G63A U69C U74C | 0.11 |
| A45G A56U A57U U72A | 0.18 |
| A45U A56C A57U | 0.12 |

| Variant | self-cleavage |
| --- | --- |
| A45U U49G U51C | 0.2 |
| G46U U51C A64G U72C | 0.1 |
| A45G A64G A77C | 0.62 |
| A47G A56U U67C | 0.16 |
| A45U G63A A64G U76C | 0.16 |
| A45G A64C U74C | 0.24 |
| A45G A57G G61A A64G | 0.45 |
| A45G A56G U66C U69A | 0.3 |
| A47G G52A U76A | 1.25 |
| A45G A56G A75G | 0.38 |
| A45G U51C A57G | 0.48 |
| A45G U51C A57C | 0.13 |
| G46U U51C A64U U66A U78C | 0.13 |
| A47C U49A U74C | 0.23 |
| A45G A57G U58A U72C | 0.15 |
| G46U U67C U72A | 0.3 |
| G46U U48C U54G U80C | 0.09 |
| A45G A56G A64G | 0.38 |
| A47G A56C A64U U80C | 0.28 |
| A45U U60A A65G U69C U78C | 0.1 |
| A45U U60A U78C | 1.13 |
| A45G U58C U60G U80A | 0.19 |
| A45U U69C U76C | 0.32 |
| A45U A64U U69C | 0.47 |

| Variant | self-cleavage |
| --- | --- |
| A45U A47G U80A | 0.32 |
| G46A U54C U58C U69C | 0.06 |
| A45G U54C U80A | 1 |
| A45G U49C U51A U69C | 0.12 |
| A45G U60A A65G | 0.26 |
| A45G A56U U78A | 0.4 |
| A45U U49G A64G C81U | 0.1 |
| A45G U51C U67C C68U U69C | 0.24 |
| A45U U49C C59A | 0.17 |
| A45G A57C U58C G63A C71G | 0.1 |
| A47G C59A U72A | 0.21 |
| A45G U51A A77G | 0.7 |
| A45G U58C U60A | 0.2 |
| A45U U72C U78C U80A | 0.67 |
| G46U A64G U69A U80C | 0.19 |
| A45G U67C U78C | 0.31 |
| A45U U51A A64U U69A | 0.26 |
| A45U U51C A57G | 0.27 |
| A45G U69C U76C | 0.54 |
| A45G U54C U60C C62A | 0.46 |
| A45G A65G U76C | 0.34 |
| A45G U48C U51C | 0.37 |
| A45U U49C G55C A65G U80C | 0.11 |
| A45G U69C A75U | 0.25 |

| Variant | self-cleavage |
| --- | --- |
| A45G U66C U72G | 0.24 |
| A45U A64C U69A U78A | 0.37 |
| A45U U58C U67C U72C | 0.1 |
| A45U U48C A64G U76C | 0.14 |
| A45G U54C U58A U80A | 0.42 |
| A45U A56G U60A | 0.91 |
| A47G C62U A64U U66C U78C | 0.15 |
| A45U U60A A64G U67A | 0.25 |
| A45G U48C U58A U60C U72G U76A | 0.03 |
| A47G A57G U58C A64U | 0.48 |
| A45U A65G C79A | 0.11 |
| A45U U49C A56U U78C | 0.15 |
| A45G A56U U80C C81U | 0.42 |
| A45G G52U U72A | 0.63 |
| A45G U51C A64U U80A | 0.26 |
| A45U U49C U54C | 0.48 |
| A45G G55U A75G | 0.7 |
| G46U A47G U58C A65C C68U | 0.1 |
| A45U U48A U66A | 0.13 |
| A45G U69A U78C | 0.71 |
| A45U A77G U78C | 0.67 |
| A47G G52C G61C | 0.27 |
| A47G A57G C59U U74A A75G | 0.24 |
